Each structure is given as a SMILES string. The campaign covered roughly 150,000 compounds. About 540 (0.36%) showed an effect of 50% or more. The list shows a part of the results.

This assay concerns Plasmodium falciparum. Kind of assay: Primary screen in NF54 nanoGlo assay, in single point, at 2uM, 72h; a lower Z score goes with more inhibition. Format: functional, Erythrocyte. The settings on record: timepoint 72 hour.
As to `CCOc1cccc(CN(CCO)C(=O)Cc2ccc(O)c(Cl)c2)c1`, the % Inhibition (in general, the relative decrease from the control value, in per cent) is -4% and the Z score is given as 0.78.
For `Cc1ccc(-c2ccc(C(=O)Nc3cccnc3N3CCOCC3)c(F)c2)cc1C` the same measures were -8% and 1.44.
For `O=C(NC1CCCCC1)C1CC(O)CN1C1CCN(C(=O)c2ccc3ncccc3c2)CC1` (stereo unspecified) the same measures were -11% and 2.
With `O[C@H]1CCN(C2CCN(c3ccc(-n4cnc5ccccc54)cc3)CC2)C1`, the “% Inhibition” value is given as -4% and the Z score is reported as 0.72.
For `O=C([C@@H]1CCCN1c1ncnc2[nH]cnc12)N1CCC(c2noc3cc(F)ccc23)CC1` the same measures were -14% and 2.11.
For `Cc1cccnc1OCC1CCN(Cc2nncn2C)CC1` the same measures were -21% and 4.14.
For `Oc1cccc(CN2CCC[C@H](NCc3cnc(N4CCOCC4)nc3)C2)c1` the same measures were -6% and 0.91.
Take `COc1ccccc1-c1ccc(N[C@H]2CCCN(Cc3cccs3)C2)nn1`: the “% Inhibition” value was -19% and the Z score is 4.18.
Regarding `COc1ccccc1C(=O)Nc1cccc(Nc2nc(-c3ccccc3)c3ccc(C)cc3n2)c1`, the “% Inhibition” value was -6% and the Z score came out at 0.93.
As for `O=C(c1ccncc1)N1CC[C@H](NC2CCN(CC(F)(F)F)CC2)C1`, the “% Inhibition” value is given as 5% and the Z score is recorded as -0.96.
For `COc1ccc(OC2CCN(C3CCCC3)CC2)c(C(=O)NCc2cccc3[nH]ccc23)c1` the same measures were 44% and -7.54.
For `CC(C)n1ncc2cc(CNc3nnc(-c4ccncc4)o3)cnc21` the same measures were -1% and 0.29.
For `CC(=O)N1CC2CCCN3CCCC(C23)C1CCCC(=O)N1CCC(N2CCCCC2)CC1` (stereo unspecified) the same measures were 9% and -1.58.
As to `O=C(NC1CNCC1O)c1cc(Cl)ccc1Br` (stereo unspecified), the “% Inhibition” value is -6% and the Z score is 0.9.
For `CC(C)c1cccc(C(=O)N2CC(O)C(Cc3cnccn3)C2)c1` (stereo unspecified) the same measures were -7% and 1.2.
With `CC(=O)N(c1ccccc1)c1nc([C@H]2Nc3ccccc3-c3nc4ccccc4n32)cs1`, the “% Inhibition” value is on record as -7% and the Z score was 1.01.
For `Cc1cnc(NCCCn2ncc3ccccc32)nc1-c1cnn(C)c1` the same measures were -9% and 1.79.
For `Cc1ccc(-c2noc(CCCn3cncn3)n2)nn1` the same measures were -6% and 1.06.
For `CN(C[C@H](O)COc1cccc(CNCCCOc2cccnc2)c1)C1CCCCC1` the same measures were 31% and -6.24.
Consider `CC[C@H](Nc1nccc(-c2ccncc2)n1)c1cnn(C)c1`, for which the “% Inhibition” value worked out at 1% and the Z score was -0.2.
As for `O=C(NC1CCN(CC(F)(F)F)CC1)c1cccc(Oc2cnccn2)c1`, the “% Inhibition” value was -5% and the Z score worked out at 0.86.
For `Fc1cc(CNC[C@H]2CCN(CC(F)(F)F)C2)c2ncccc2c1` the same measures were 2% and -0.44.
For `COC[C@H]1CCCN(S(=O)(=O)NCc2noc(-c3ccco3)n2)C1` the same measures were -10% and 1.76.
